Assay results from the supplement of paper PMC7826260.
Some of the results follow. The data describe in vitro nicking of single-stranded DNA by Rep domains for 1 h at 37 °C with 3 µM enzyme; only the middle of the 90-letter strands is printed. A value is the log2 ratio of uncut reads to the pool without enzyme; the lower, the more was cut; hits are not called. Shares of all reads are compared; uncut strands gain when others are lost, and binding without cutting may add a little.

Columns and labels:
Assay in all cases: uncleaved DNA left, log2 of reads against the no-enzyme library (log2 ratio); higher = less cleavage (more negative = more Rep cleavage of the k-mer); sequences stand for … in CTCGTCCG…ACCGGAGA
[1] = system: T1, Rep nickase domain of Muscovy duck circovirus
T1 sequence (residues 1-111 of Rep, tag left off): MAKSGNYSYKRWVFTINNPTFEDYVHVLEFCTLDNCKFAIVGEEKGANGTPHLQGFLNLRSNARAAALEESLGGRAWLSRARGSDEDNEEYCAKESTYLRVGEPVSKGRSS
Protocol: (§1)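 A pool of 90-nt single-stranded DNAs with seven random bases just before the constant AC of the nick site (name = the seven bases) was cut by 3 µM recombinant His6-SUMO-tagged Rep nickase domain (300 nM DNA, 50 mM HEPES pH 8.0, 50 mM NaCl, 1 mM MnCl2, 1 h, 37 °C, three replicates). Uncut DNA was amplified and sequenced.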

[2] = system: T2, Rep nickase domain of banana bunchy top virus
T2 sequence (residues 1-94 of Rep, tag left off): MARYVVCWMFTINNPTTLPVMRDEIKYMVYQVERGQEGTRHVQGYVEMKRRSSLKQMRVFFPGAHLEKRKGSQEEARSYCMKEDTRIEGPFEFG
Protocol: as §1

[3] = system: T3, Rep nickase domain of cabbage leaf curl virus
T3 sequence (residues 1-116 of Rep, tag left off): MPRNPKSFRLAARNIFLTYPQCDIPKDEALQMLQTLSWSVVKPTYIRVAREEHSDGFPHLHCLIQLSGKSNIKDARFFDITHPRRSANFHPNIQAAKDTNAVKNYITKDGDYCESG
Protocol: as §1

[4] = system: T4, Rep nickase domain of chickpea chlorotic dwarf virus
T4 sequence (residues 1-124 of Rep, tag left off): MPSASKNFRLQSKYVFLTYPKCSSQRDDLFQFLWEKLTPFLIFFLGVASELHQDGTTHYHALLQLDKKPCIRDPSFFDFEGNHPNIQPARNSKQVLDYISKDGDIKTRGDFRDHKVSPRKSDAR
Protocol: as §1

[5] = system: T5, Rep nickase domain of faba bean necrotic yellows virus
T5 sequence (residues 1-98 of Rep, tag left off): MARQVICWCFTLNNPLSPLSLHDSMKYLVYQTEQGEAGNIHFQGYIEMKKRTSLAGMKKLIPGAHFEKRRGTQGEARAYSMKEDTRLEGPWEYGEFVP
Protocol: as §1

[6] = system: T6, Rep nickase domain of maize striate mosaic virus
T6 sequence (residues 1-117 of Rep, tag left off): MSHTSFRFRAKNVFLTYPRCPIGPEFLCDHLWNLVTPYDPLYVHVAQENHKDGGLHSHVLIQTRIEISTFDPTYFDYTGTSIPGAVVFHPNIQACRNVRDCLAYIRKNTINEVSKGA
Protocol: as §1

[7] = system: T7, Rep nickase domain of porcine circovirus 2
T7 sequence (residues 2-116 of Rep, tag left off): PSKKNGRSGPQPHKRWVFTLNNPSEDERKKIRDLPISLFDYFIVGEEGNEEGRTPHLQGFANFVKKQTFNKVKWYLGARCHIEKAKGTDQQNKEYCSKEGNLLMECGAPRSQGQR
Protocol: as §1

[8] = system: T8, Rep nickase domain of tomato golden mosaic virus
T8 sequence (residues 1-124 of Rep, tag left off): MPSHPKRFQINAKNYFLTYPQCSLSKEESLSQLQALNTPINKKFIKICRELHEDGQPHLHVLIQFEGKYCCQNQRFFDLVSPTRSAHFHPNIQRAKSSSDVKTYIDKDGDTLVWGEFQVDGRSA
Protocol: as §1

[9] = system: T9, Rep nickase domain of tomato yellow leaf curl virus
T9 sequence (residues 1-136 of Rep, tag left off): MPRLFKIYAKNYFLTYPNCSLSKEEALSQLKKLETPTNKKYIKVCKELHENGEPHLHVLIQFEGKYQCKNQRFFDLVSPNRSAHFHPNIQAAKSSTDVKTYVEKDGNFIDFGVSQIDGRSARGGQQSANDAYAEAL
Protocol: as §1

[10] = system: T10, Rep nickase domain of wheat dwarf virus
T10 sequence (residues 1-137 of Rep, tag left off): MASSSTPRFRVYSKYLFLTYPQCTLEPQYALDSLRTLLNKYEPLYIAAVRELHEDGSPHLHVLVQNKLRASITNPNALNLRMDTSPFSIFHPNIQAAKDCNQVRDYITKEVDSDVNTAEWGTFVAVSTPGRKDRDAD
Protocol: as §1

| Sequence | uncleaved DNA left (log2) [1] | uncleaved DNA left (log2) [2] | uncleaved DNA left (log2) [3] | uncleaved DNA left (log2) [4] | uncleaved DNA left (log2) [5] | uncleaved DNA left (log2) [6] | uncleaved DNA left (log2) [7] | uncleaved DNA left (log2) [8] | uncleaved DNA left (log2) [9] | uncleaved DNA left (log2) [10] |
| --- | --- | --- | --- | --- | --- | --- | --- | --- | --- | --- |
| ATGCGAC | 0.0246 | -0.0774 | -0.0882 | 0.225 | -0.0632 | -0.081 | 0.198 | 0.0833 | -0.0454 | -0.0255 |
| GTGTACC | -0.014 | 0.0262 | 0.143 | 0.786 | -0.121 | 1.77 | -0.0916 | -0.0259 | 0.00801 | 0.0257 |
| AACCAGC | -0.0123 | 0.0289 | -0.308 | -0.561 | 0.0728 | -1.06 | -0.0833 | -0.0404 | -0.00191 | -0.0106 |
| TCAGAAT | 0.0037 | 0.0603 | 0.313 | 0.747 | 0.00218 | 1.24 | 0.133 | 0.121 | -0.0796 | 0.057 |
| AAAGAGG | 0.00706 | -0.002 | 0.168 | 0.716 | 0.0706 | -0.0784 | 0.27 | 0.167 | -0.073 | -0.0137 |
| CGGGCAG | -0.0522 | -0.0328 | 0.55 | 1.49 | -0.202 | 1.68 | 0.0421 | -0.116 | -0.122 | -0.0837 |
| GTGAAGA | 0.0399 | 0.149 | 0.36 | 0.963 | 0.0115 | 1.02 | 0.195 | 0.117 | 0.187 | 0.0408 |
| TTCGTTG | -0.105 | -0.141 | -0.404 | -0.678 | 0.0193 | -0.936 | 0.00188 | -0.125 | -0.056 | -0.107 |
| TAGGCCC | -0.123 | -0.0153 | 0.102 | 0.461 | -0.0778 | 0.593 | -0.101 | -0.014 | -0.00247 | -0.0248 |
| AAACCAT | 0.177 | 0.121 | -0.257 | -2.25 | 0.00428 | -0.34 | -0.41 | 0.017 | 0.12 | 0.0821 |
| GGAGTAC | -0.065 | 0.0322 | 0.698 | 1.7 | -0.0143 | 2.06 | 0.132 | -0.0467 | -0.00956 | 0.112 |
| GAGATAC | 0.0129 | -0.00462 | 0.229 | 0.7 | -0.0641 | 0.37 | -0.0272 | 0.0751 | -0.0303 | 0.127 |
| AGTCTTG | 0.142 | 0.185 | -0.0557 | -1.79 | 0.16 | 0.153 | 0.00576 | 0.176 | 0.0714 | 0.0587 |
| ATCTACC | 0.00783 | -0.0742 | -0.187 | -1.81 | -0.0339 | -0.301 | -0.478 | -0.0456 | -0.0186 | 0.0344 |
| TCTCTGC | 0.0595 | -0.0152 | -0.335 | -0.776 | 0.0689 | -1.03 | 0.0681 | -0.0202 | -0.0795 | -0.1 |
| GCGCTTG | -0.129 | -0.317 | -0.0445 | 0.184 | -0.051 | 0.715 | 0.0524 | -0.175 | -0.277 | -0.133 |
| CTATAAT | -3.25 | -0.198 | -2.18 | -2.45 | -0.025 | -0.963 | -3.64 | -0.665 | 0.107 | -0.462 |
| ATAAACG | 0.0241 | 0.0806 | -0.684 | 0.183 | 0.133 | -0.859 | 0.245 | 0.0966 | 0.0661 | -0.0343 |
| GCAAACG | 0.024 | -0.0157 | -0.721 | -0.306 | -0.0788 | -0.809 | 0.168 | -0.0548 | -0.0849 | -0.142 |
| TAAGCAA | -0.0575 | -0.0143 | -0.173 | -1.2 | -0.0342 | -0.607 | -0.0186 | 0.0483 | 0.0298 | -0.000133 |
| ACCGGCC | -0.103 | -0.113 | -0.124 | 0.137 | -0.0779 | -0.482 | 0.0112 | -0.144 | -0.108 | -0.0961 |
| AGATGTA | -0.0229 | 0.232 | 0.255 | 0.0437 | 0.0663 | 0.537 | -0.202 | 0.155 | 0.0185 | 0.101 |
| TCGAGTC | 0.0211 | 0.117 | 0.161 | 0.127 | 0.18 | -0.353 | -0.0385 | -0.0304 | 0.072 | 0.0107 |
| CAGCGAA | -0.108 | -0.214 | -0.344 | -0.526 | -0.122 | -1.13 | -0.266 | -0.106 | -0.0314 | -0.25 |
| TATCATT | -1.15 | -0.277 | -0.805 | -1.88 | -0.106 | -0.219 | -2.81 | -0.136 | 0.0761 | 0.0764 |
| GGGCGAA | -0.0518 | -0.0703 | 0.725 | 1.78 | -0.00289 | 2.02 | 0.23 | 0.059 | 0.0316 | 0.116 |
| GTCTGAA | -0.00409 | 0.0735 | 0.232 | 0.83 | 0.0544 | 1.61 | 0.0838 | 0.117 | 0.0828 | 0.0642 |
| GTGGGAG | 0.0053 | -0.0855 | 0.335 | 0.766 | -0.0408 | 0.356 | 0.141 | 0.172 | 0.174 | 0.0422 |
| CCTGTGA | -0.00738 | -0.0367 | -0.328 | -0.683 | 0.0788 | -1.01 | 0.00737 | -0.185 | -0.024 | -0.134 |
